# The other results are listed elsewhere or left out.
# B1: SialidaseA (Arthrobacter ureafaciens) (protein)
# chain: MRSNSTSAPSLVRRAATGVLTCAVSIGLLAGLGLPAQAAPTPPNSPTLPPGSFSETNLAADRTAANFFYRIPALTYLGNDVVLAAWDGRPGSAADAPNPNSIVQRRSTDGGKTWGPVQVIAAGHVADASGPRYGYSDPSYIYDAEANKVFAFFVYSKDQGFGGSQFGNDDADRNVISSAVIESSDAGVTWSQPRLITSVTKPGTSKTNPAAGDVRSNFASSGEGIQLKYGPHKGRLIQQYAGDVRQADGSNKIQAYSVYSDDHGVTWHKGANVGDRMDENKTVELSDGRVLLNSRDNANRGYRKVAVSTDGGATYGPVSQDTELPDPANNGAIARMFPNAAQGSADAKKLIFTNANSKTGRENVSARVSCDDGETWPGVRTIRSGFSAYSTVTRLADGKFGVLYEGNYTDNMPFATFDDAWLNYVCAPLAVPAVNIAPSATQEVPVTVTNQEATTLSGATATVYTPSGWSATTVPVPDVAPGASVTVTVALTAPADASGPRSLNAAFTTADGRVSQFTFTATTPVAPQVGLTITGSAPARDVAANPYQAGDVLGYTLNVKSTANVAANSVPLTGTFDSGFLPPAAPNCRYNNLAAGASYNCTTAKHTITAADMERGYFVPEATFSITSTTTPSLTKTVQFTGAAVALRDGLISADISGARTDVGRDLATRPYAAGELVPYAFTVKNTSPFVEQVVPTAGNFSPFLPAGAGNCRYLSLPAGQSYECATPRHAVTAEEVEQGFFVPDTTWEVSAAGQSTRTYRINGGEVDLLVRDAALSATVVAEWKDADGDRFASAGDPVTFTYTVGNAGNVALTGLEAPDAGISLPFLAPGDTATATREHVLTAADVAGGSLAASAFEATARNGSKEVTATAEGQPLELKVQPAQPSKEPELTVQDLEDQTPPFDLGTAFKYRTGQKVSLAGLEYGQWYYVYLNKTGYRLGWMFPTTGDTVEFILPPEVRNGRDDVVVLDKDGRRVSFDRLQVTPKGEKI
# What was measured:
# Experiment in all cases: glycan array binding signal (z-score within array); higher = stronger binding
# Conditions in all cases: glycan notation: IUPAC condensed, linker removed
# [1] = target: Neu5Ac(a2-6)Gal(b1-4)GlcNAc(b1-2)Man(a1-3)[Man(a1-6)]Man(b1-4)GlcNAc(b1-4)GlcNAc
# Method in brief: (§1)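 Columns mapping to the same glycan were averaged after glycan names were converted to IUPAC-condensed notation. The data come from 3228 arrays in the Consortium for Functional Glycomics database, limited to those with an available protein sequence. Binding is reported as a within-array Z-score averaged across arrays of one protein sequence and across linkers.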
# [2] = target: Neu5Ac(a2-6)Gal(b1-4)GlcNAc(b1-2)Man(a1-3)[Neu5Ac(a2-3)Gal(b1-4)GlcNAc(b1-2)Man(a1-6)]Man(b1-4)GlcNAc(b1-4)GlcNAc
# Method in brief: as §1
# [3] = target: Neu5Ac(a2-6)Gal(b1-4)GlcNAc(b1-2)Man(a1-3)[Neu5Ac(a2-6)Gal(b1-4)GlcNAc(b1-2)Man(a1-6)]Man(b1-4)GlcNAc(b1-4)GlcNAc
# Method in brief: as §1
# [4] = target: Neu5Ac(a2-6)Gal(b1-4)GlcNAc(b1-2)Man(a1-3)[Neu5Ac(a2-6)Gal(b1-4)GlcNAc(b1-2)Man(a1-6)]Man(b1-4)GlcNAc(b1-4)[Fuc(a1-6)]GlcNAc
# Method in brief: as §1
# [5] = target: Neu5Ac(a2-6)Gal(b1-4)GlcNAc(b1-2)Man(a1-6)Man(b1-4)GlcNAc(b1-4)GlcNAc
# Method in brief: as §1
# [6] = target: Neu5Ac(a2-6)Gal(b1-4)GlcNAc(b1-2)Man(a1-6)[Gal(b1-4)GlcNAc(b1-2)Man(a1-3)]Man(b1-4)GlcNAc(b1-4)GlcNAc
# Method in brief: as §1
# [7] = target: Neu5Ac(a2-6)Gal(b1-4)GlcNAc(b1-2)Man(a1-6)[GlcNAc(b1-2)Man(a1-3)]Man(b1-4)GlcNAc(b1-4)GlcNAc
# Method in brief: as §1
# [8] = target: Neu5Ac(a2-6)Gal(b1-4)GlcNAc(b1-2)Man(a1-6)[Man(a1-3)]Man(b1-4)GlcNAc(b1-4)GlcNAc
# Method in brief: as §1
# [9] = target: Neu5Ac(a2-6)Gal(b1-4)GlcNAc(b1-2)[Neu5Ac(a2-6)Gal(b1-4)GlcNAc(b1-4)]Man(a1-3)[GlcNAc(b1-4)][Neu5Ac(a2-6)Gal(b1-4)GlcNAc(b1-2)[Neu5Ac(a2-6)Gal(b1-4)GlcNAc(b1-6)]Man(a1-6)]Man(b1-4)GlcNAc(b1-4)GlcNAc
# Method in brief: as §1
# [10] = target: Neu5Ac(a2-6)Gal(b1-4)GlcNAc(b1-2)[Neu5Ac(a2-6)Gal(b1-4)GlcNAc(b1-4)]Man(a1-3)[GlcNAc(b1-4)][Neu5Ac(a2-6)Gal(b1-4)GlcNAc(b1-4)Man(a1-6)]Man(b1-4)GlcNAc(b1-4)GlcNAc
# Method in brief: as §1
# [11] = target: Neu5Ac(a2-6)Gal(b1-4)GlcNAc(b1-2)[Neu5Ac(a2-6)Gal(b1-4)GlcNAc(b1-6)]Man(a1-6)[Neu5Ac(a2-6)Gal(b1-4)GlcNAc(b1-2)Man(a1-3)][GlcNAc(b1-4)]Man(b1-4)GlcNAc(b1-4)GlcNAc
# Method in brief: as §1
# [12] = target: Neu5Ac(a2-6)Gal(b1-4)GlcNAc(b1-3)Gal(b1-3)GlcNAc
# Method in brief: as §1
# [13] = target: Neu5Ac(a2-6)Gal(b1-4)GlcNAc(b1-3)Gal(b1-4)GlcNAc
# Method in brief: as §1
# [14] = target: Neu5Ac(a2-6)Gal(b1-4)GlcNAc(b1-3)Gal(b1-4)GlcNAc(b1-2)Man(a1-3)[Neu5Ac(a2-6)Gal(b1-4)GlcNAc(b1-3)Gal(b1-4)GlcNAc(b1-2)Man(a1-6)]GalNAc
# Method in brief: as §1
# [15] = target: Neu5Ac(a2-6)Gal(b1-4)GlcNAc(b1-3)Gal(b1-4)GlcNAc(b1-3)Gal(b1-4)GlcNAc
# Method in brief: as §1
# [16] = target: Neu5Ac(a2-6)Gal(b1-4)GlcNAc(b1-3)Gal(b1-4)GlcNAc(b1-3)Gal(b1-4)GlcNAc(b1-2)Man(a1-3)[Neu5Ac(a2-6)Gal(b1-4)GlcNAc(b1-3)Gal(b1-4)GlcNAc(b1-3)Gal(b1-4)GlcNAc(b1-2)Man(a1-6)]GalNAc
# Method in brief: as §1
# [17] = target: Neu5Ac(a2-6)Gal(b1-4)GlcNAc(b1-3)Gal(b1-4)GlcNAc(b1-3)GalNAc
# Method in brief: as §1
# [18] = target: Neu5Ac(a2-6)Gal(b1-4)GlcNAc(b1-3)Gal(b1-4)GlcNAc(b1-3)[Neu5Ac(a2-6)Gal(b1-4)GlcNAc(b1-3)Gal(b1-4)GlcNAc(b1-6)]GalNAc
# Method in brief: as §1
# [19] = target: Neu5Ac(a2-6)Gal(b1-4)GlcNAc(b1-3)Gal(b1-4)GlcNAc(b1-6)[Gal(b1-3)]GalNAc
# Method in brief: as §1
# [20] = target: Neu5Ac(a2-6)Gal(b1-4)GlcNAc(b1-3)Gal(b1-4)[Fuc(a1-3)]GlcNAc(b1-3)Gal(b1-4)[Fuc(a1-3)]GlcNAc
# Method in brief: as §1
# [21] = target: Neu5Ac(a2-6)Gal(b1-4)GlcNAc(b1-3)GalNAc
# Method in brief: as §1
# [22] = target: Neu5Ac(a2-6)Gal(b1-4)GlcNAc(b1-3)[Neu5Ac(a2-6)Gal(b1-4)GlcNAc(b1-6)]GalNAc
# Method in brief: as §1
# [23] = target: Neu5Ac(a2-6)Gal(b1-4)GlcNAc(b1-6)GalNAc
# Method in brief: as §1
# [24] = target: Neu5Ac(a2-6)Gal(b1-4)GlcNAc(b1-6)[Gal(b1-3)GlcNAc(b1-3)]Gal(b1-4)Glc
# Method in brief: as §1
# [25] = target: Neu5Ac(a2-6)Gal(b1-4)GlcNAc(b1-6)[Gal(b1-3)]GalNAc
# Method in brief: as §1
# [26] = target: Neu5Ac(a2-6)Gal(b1-4)GlcNAc6S
# Method in brief: as §1
# Neu5Ac(a2-6)GalNAc = target: Neu5Ac(a2-6)GalNAc
# Method in brief: as §1
# [27] = target: Neu5Ac(a2-6)GalNAc(b1-4)GlcNAc
# Method in brief: as §1
# [28] = target: Neu5Ac(a2-6)GalNAc(b1-4)GlcNAc6S
# Method in brief: as §1
# [29] = target: Neu5Ac(a2-6)GlcNAc(b1-4)GlcNAc
# Method in brief: as §1
binder,measurement,setting,value
B1,glycan array binding signal (z-score),[1],3.4
same,glycan array binding signal (z-score),[2],2.86
same,glycan array binding signal (z-score),[3],2.6
same,glycan array binding signal (z-score),[4],3.44
same,glycan array binding signal (z-score),[5],3.28
same,glycan array binding signal (z-score),[6],3.95
same,glycan array binding signal (z-score),[7],3.32
same,glycan array binding signal (z-score),[8],3.29
same,glycan array binding signal (z-score),[9],1.28
same,glycan array binding signal (z-score),[10],2.78
same,glycan array binding signal (z-score),[11],1.69
same,glycan array binding signal (z-score),[12],0.845
same,glycan array binding signal (z-score),[13],2.72
same,glycan array binding signal (z-score),[14],2.72
same,glycan array binding signal (z-score),[15],1.73
same,glycan array binding signal (z-score),[16],2.69
same,glycan array binding signal (z-score),[17],2.26
same,glycan array binding signal (z-score),[18],3.49
same,glycan array binding signal (z-score),[19],3.09
same,glycan array binding signal (z-score),[20],3.65
same,glycan array binding signal (z-score),[21],1.06
same,glycan array binding signal (z-score),[22],3.9
same,glycan array binding signal (z-score),[23],-0.534
same,glycan array binding signal (z-score),[24],-0.514
same,glycan array binding signal (z-score),[25],2.04
same,glycan array binding signal (z-score),[26],2.34
same,glycan array binding signal (z-score),Neu5Ac(a2-6)GalNAc,1.1
same,glycan array binding signal (z-score),[27],0.64
same,glycan array binding signal (z-score),[28],1.49
same,glycan array binding signal (z-score),[29],1.43

# From the supplement of paper PMC8728848
